Like-named read-outs stand apart in the source and are kept apart here.
Experiments:
[1] = biological target: T1, Human IL-2Rβ/γ (intermediate affinity IL-2 receptor) (human, UniProt P14784 27-551; P31785 23-369); assay: FACS, HH cells
T1 construct: whole, on cells; also called IL-2Rβ/γc; IL-2Rβ (CD122) and γ (CD132)
T1 sequence (looked up) 1: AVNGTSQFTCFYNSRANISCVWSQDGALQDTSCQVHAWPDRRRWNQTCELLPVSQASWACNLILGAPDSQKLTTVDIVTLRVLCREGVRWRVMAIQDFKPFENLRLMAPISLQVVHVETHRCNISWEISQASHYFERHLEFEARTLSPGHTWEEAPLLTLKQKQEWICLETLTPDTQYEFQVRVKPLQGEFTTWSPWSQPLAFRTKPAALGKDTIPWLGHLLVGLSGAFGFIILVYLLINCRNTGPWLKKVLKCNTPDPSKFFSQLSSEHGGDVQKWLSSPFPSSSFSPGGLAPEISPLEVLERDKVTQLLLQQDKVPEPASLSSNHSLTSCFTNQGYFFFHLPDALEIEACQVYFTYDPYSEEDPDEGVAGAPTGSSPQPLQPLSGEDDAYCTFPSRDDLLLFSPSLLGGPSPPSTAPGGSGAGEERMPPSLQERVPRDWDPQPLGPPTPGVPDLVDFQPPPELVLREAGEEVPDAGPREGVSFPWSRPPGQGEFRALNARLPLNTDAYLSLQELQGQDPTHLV
T1 sequence (looked up) 2: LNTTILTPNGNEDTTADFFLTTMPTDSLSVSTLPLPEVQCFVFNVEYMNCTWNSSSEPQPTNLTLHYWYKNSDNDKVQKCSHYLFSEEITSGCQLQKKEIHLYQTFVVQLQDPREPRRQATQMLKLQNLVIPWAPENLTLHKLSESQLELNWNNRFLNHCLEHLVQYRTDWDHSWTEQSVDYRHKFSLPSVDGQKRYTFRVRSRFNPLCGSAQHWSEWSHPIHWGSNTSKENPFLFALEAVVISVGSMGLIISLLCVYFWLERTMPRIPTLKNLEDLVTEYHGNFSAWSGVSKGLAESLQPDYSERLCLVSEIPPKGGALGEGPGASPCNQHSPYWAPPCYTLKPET
Experimental: (§1) Human cutaneous T cell lymphoma HH cells, malignant non-Hodgkin's lymphoma NK92 cells and cutaneous T cell lymphoma MJ20 cells were used for binding assay. They both constitutively express IL-2Rβ (CD122) and […] (CD132), and NK92 and MJ20 also expresses IL-2Rα (CD25). HH, NK92 and MJ20 cells were cultured following ATCC guidance, then transferred to a 96-plate for binding analysis. Cells were incubated with IL-2/Fc fusion proteins at the indicated concentrations for 30 min at 4° C. to avoid internalization. Binding was detected by 2nd antibody of PE-anti-human Fc at 4° C. for another 30 min. The median fluorescence intensity (MFI) on HH and NK92 cells was measured using FACS.
(§2) IL-2 variants of T2U0.E44-6 and T2U0.E44-26 were used to construct bivalent variants W3XX115-T2.Z20-1.uIgG4V322 and W3XX115-T2.Z20-2.uIgG4V322 respectively.

[2] = biological target: T2, Human IL-2Rα/β/γ complex (high affinity IL-2 receptor) (human, UniProt P01589 22-272; P14784 27-551; P31785 23-369); assay: FACS, MJ20 cells
T2 construct: whole, on cells
T2 sequence (looked up) 1: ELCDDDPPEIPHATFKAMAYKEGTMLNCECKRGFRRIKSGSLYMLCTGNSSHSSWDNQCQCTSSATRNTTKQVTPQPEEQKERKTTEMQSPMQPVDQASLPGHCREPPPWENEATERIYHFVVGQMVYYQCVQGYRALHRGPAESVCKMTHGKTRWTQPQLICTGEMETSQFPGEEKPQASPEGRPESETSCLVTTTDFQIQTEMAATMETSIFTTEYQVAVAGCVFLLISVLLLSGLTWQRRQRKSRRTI
T2 sequence (looked up) 2: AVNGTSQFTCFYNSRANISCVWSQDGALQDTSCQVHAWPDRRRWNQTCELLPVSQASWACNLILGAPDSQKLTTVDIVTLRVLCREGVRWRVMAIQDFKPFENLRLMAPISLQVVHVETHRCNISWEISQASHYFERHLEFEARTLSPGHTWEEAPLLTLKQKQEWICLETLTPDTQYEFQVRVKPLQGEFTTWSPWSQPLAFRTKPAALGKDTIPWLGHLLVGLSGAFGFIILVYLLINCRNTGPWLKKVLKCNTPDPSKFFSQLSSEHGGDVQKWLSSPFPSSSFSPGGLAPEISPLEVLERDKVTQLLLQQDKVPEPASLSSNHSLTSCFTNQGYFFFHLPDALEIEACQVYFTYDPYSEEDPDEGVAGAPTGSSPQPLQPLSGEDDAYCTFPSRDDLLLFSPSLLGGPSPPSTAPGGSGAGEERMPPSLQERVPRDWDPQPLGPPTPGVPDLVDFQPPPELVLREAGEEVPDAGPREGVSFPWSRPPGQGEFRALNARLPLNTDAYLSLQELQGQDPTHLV
T2 sequence (looked up) 3: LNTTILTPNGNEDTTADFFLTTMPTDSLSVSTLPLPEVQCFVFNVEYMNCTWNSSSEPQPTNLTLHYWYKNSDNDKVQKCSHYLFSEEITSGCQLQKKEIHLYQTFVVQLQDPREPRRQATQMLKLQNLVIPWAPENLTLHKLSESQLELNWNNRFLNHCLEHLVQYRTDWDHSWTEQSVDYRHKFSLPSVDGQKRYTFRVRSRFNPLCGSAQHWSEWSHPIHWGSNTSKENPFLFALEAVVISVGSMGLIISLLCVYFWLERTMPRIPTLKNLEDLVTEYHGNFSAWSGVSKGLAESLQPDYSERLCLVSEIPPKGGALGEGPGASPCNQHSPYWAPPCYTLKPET
Experimental: as §1

[3] = biological target: T2, Human IL-2Rα/β/γ complex (high affinity …); assay: FACS, MJ20 cells; remark: listed apart in the source
Experimental: as §1, §2

[4] = biological target: T1, Human IL-2Rβ/γ (intermediate affinity …); assay: FACS, HH cells; EC50 fold vs T2U0.E44-1
Experimental: as §1

[5] = biological target: T2, Human IL-2Rα/β/γ complex (high affinity …); assay: FACS, MJ20 cells; EC50 fold vs T2U0.E44-1
Experimental: as §1
Affinity of IL-2 variants to IL-2Rα/β/γ supported the same results (FIG. 8 and Table 7). […] And T2U0.E44-26, T2U0.E44-27, T2U0.E44-29 and T2U0.E44-30 induced hundreds to thousands affinity reduction in Treg compared to T2U0.E44-1. Binding curves in MJ20 cells (IL-2Rα/β/γ) also achieved similar trend (FIG. 8b). As a result, the method of C-terminal truncation and substitution of 129 was available to achieve IL-2Rβγ attenuated IL-2 variants.

- EC50 [1]: 31.6 nM
- EC50 [2]: 45.9 nM
- EC50 [3]: 8.31 nM
- Affinity reduction [4]: 1 fold
- Affinity reduction [5]: 1 fold
B1: W3XX115-T2U0.E44-1.uIgG4V322 (Fc fusion)
chain: [no letters for about 150 residues]ESKYGPPCPPCPAPEAAGGPSVFLFPPKPKDTLMISRTPEVTCVVVDVSQEDPEVQFNWYVDGVEVHNAKTKPREEQFNSTYRVVSVLTVLHQDWLNGKEYKCKVSNKGLPSSIEKTISKAKGQPREPQVYTLPPCQEEMTKNQVSLWCLVKGFYPSDIAVEWESNGQPENNYKTTPPVLDSDGSFFLYSRLTVDKSRWQEGNVFSCSVMHEALHNHYTQKSLSLSLG
heavy: EIQLQQSGPELVKPGASVKVSCKASGYSFTDYNMYWVKQSHGESLEWIGYIDPYNGGTRYNQKFKGKATLTVDKSSSTAFMHLNSLTSEDSAVYYCARNGHWDGAWFAYWGQGTLVTVSAASTKGPSVFPLAPCSRSTSESTAALGCLVKDYFPEPVTVSWNSGALTSGVHTFPAVLQSSGLYSLSSVVTVPSSSLGTKTYTCNVDHKPSNTKVDKRVESKYGPPCPPCPAPEAAGGPSVFLFPPKPKDTLMISRTPEVTCVVVDVSQEDPEVQFNWYVDGVEVHNAKTKPREEQFNSTYRVVSVLTVLHQDWLNGKEYKCKVSNKGLPSSIEKTISKAKGQPREPQVCTLPPSQEEMTKNQVSLSCAVKGFYPSDIAVEWESNGQPENNYKTTPPVLDSDGSFFLVSRLTVDKSRWQEGNVFSCSVMHEALHNHYTQKSLSLSLG
light: DIQMNQSPSSLSASLGDTITITCHASQNINVWLSWYQQKPGNIPKLLIYKASNLHTGVPSRFSGSRSGTGFTLTISSLQPEDIATYYCHQGQSYPFTFGSGTKLEIKRTVAAPSVFIFPPSDEQLKSGTASVVCLLNNFYPREAKVQWKVDNALQSGNSQESVTEQDSKDSTYSLSSTLTLSKADYEKHKVYACEVTHQGLSSPVTKSFNRGEC
notes: WT IL-2, no linker, IgG4 Fc with FALA, one Fab arm (E44 format); also called T20.E44-1; wild-type IL-2

Reference: patent US20250000946A1 (WUXI BIOLOGICS IRELAND, published 2025)
